Laboratory results taken from a collection of fitness landscapes (doi:10.1016/j.celrep.2020.107928).
The full ranking holds about 81,000 sequences; the median of “one-hybrid fitness for binding NBS DNA” is about -0.1, and the highest 2% start at about 0.36. Some of the results follow.

B1: Caulobacter ParB omega fusion; a variant is named by its letters at X, in order, B8GW30 (parent)
chain: MESVVVGEPGMSEGRRGLGRGLSALLGEVDAAPAQAPGEQLGGSREAPIEILQRNPDQPRRTFREEDLEDLSNSIREKGVLQPILVRPSPDTAGEYQIVAGERAWRAAQRAGLKTVPIMVRELDDLAVLEIGIIENVQRADLNVLEEALSYKVLMEKFERTQENIAQTIGKSXSHVANXMRLLXLPDEVQSYLVSGELTAXHARAIAAAADPVALAKQIIEGGLSVRETEALARKAPNLSAGKSKGGRPPRVKDTDTQALESDLSSVLGLDVSIDHRGSTGTLTITYATLEQLDDLCNRLTRGI

Variants of: B1
Assay: one-hybrid fitness for binding NBS DNA (the Noc-binding site; scaled: cognate 1, non-cognate 0); higher = stronger binding
Conditions: with NBS DNA site
Method in brief: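 On M9-minus-histidine containing 0.1 mM IPTG and 5 mM 3-AT, E. coli USO cells with a HIS3 reporter, site 19 bp from the promoter, grew 48 hours at 37°C to select Caulobacter ParB libraries randomised at four specificity codons. Plasmids from before and after were Illumina-sequenced, with three replicate libraries pooled and variants under 10 reads left out. Fitness is the log change in variant-to-wild-type read ratio, rescaled against cognate and non-cognate.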

Row | Variant | one-hybrid fitness for binding NBS DNA
1 | NFSN | ≤ 0.2
2 | LRPK | ≤ 0.2
3 | TFNT | ≤ 0.2
4 | QRDD | ≤ 0.2
5 | RLSS | 0.411
6 | LAGK | ≤ 0.2
7 | IGED | ≤ 0.2
8 | FYNR | ≤ 0.2
9 | PMKS | ≤ 0.2
10 | MVLL | ≤ 0.2
11 | LHYG | ≤ 0.2
12 | TPMK | ≤ 0.2
13 | ALRM | ≤ 0.2
14 | GSKS | ≤ 0.2
15 | WSCF | ≤ 0.2
16 | PKPP | ≤ 0.2
17 | AGNC | ≤ 0.2
18 | FEPC | ≤ 0.2
19 | TMHR | ≤ 0.2
20 | QMHV | ≤ 0.2
21 | NTAM | ≤ 0.2
22 | TMCT | ≤ 0.2
23 | YNCC | ≤ 0.2
24 | GEYG | ≤ 0.2
25 | QWVK | ≤ 0.2

Row | Variant | one-hybrid fitness for binding NBS DNA
26 | RCAG | ≤ 0.2
27 | TSES | ≤ 0.2
28 | EMSC | ≤ 0.2
29 | QCMP | ≤ 0.2
30 | RMCS | 0.383
31 | SMKY | ≤ 0.2
32 | NTPN | ≤ 0.2
33 | QRGR | 1.04
34 | RNNL | ≤ 0.2
35 | PRDM | ≤ 0.2
36 | GIMV | ≤ 0.2
37 | CKTD | ≤ 0.2
38 | IKLR | ≤ 0.2
39 | WVGW | ≤ 0.2
40 | PYDS | ≤ 0.2
41 | IFMR | ≤ 0.2
42 | PMLQ | ≤ 0.2
43 | QAFR | 0.427
44 | TKCW | ≤ 0.2
45 | YNVR | ≤ 0.2
46 | KWHY | ≤ 0.2
47 | NNDN | ≤ 0.2
48 | AVQT | ≤ 0.2
49 | HCSF | ≤ 0.2
50 | AFGR | ≤ 0.2

Row | Variant | one-hybrid fitness for binding NBS DNA
51 | AQYS | ≤ 0.2
52 | AEKE | ≤ 0.2
53 | STHS | ≤ 0.2
54 | QSVQ | 0.291
55 | NRLC | ≤ 0.2
56 | CLRT | ≤ 0.2
57 | KRTF | ≤ 0.2
58 | QSPN | ≤ 0.2
59 | HKPF | ≤ 0.2
60 | EQCG | ≤ 0.2
61 | HVTA | ≤ 0.2
62 | PGSE | ≤ 0.2
63 | GLFS | ≤ 0.2
64 | IWLT | ≤ 0.2
65 | VCYT | ≤ 0.2
66 | HKHQ | ≤ 0.2
67 | TERL | ≤ 0.2
68 | QQAP | ≤ 0.2
69 | ISFS | ≤ 0.2
70 | KSRV | ≤ 0.2
71 | KYAV | ≤ 0.2
72 | SRLQ | ≤ 0.2
73 | AHHI | ≤ 0.2
74 | RNEN | ≤ 0.2
75 | TVWS | ≤ 0.2

Row | Variant | one-hybrid fitness for binding NBS DNA
76 | SYMG | ≤ 0.2
77 | IHFS | ≤ 0.2
78 | VFTF | ≤ 0.2
79 | QVPH | ≤ 0.2
80 | ELFW | ≤ 0.2
81 | ETTL | ≤ 0.2
82 | AVHN | ≤ 0.2
83 | NRYS | ≤ 0.2
84 | HDEP | ≤ 0.2
85 | PTVE | ≤ 0.2
86 | QFKF | ≤ 0.2
87 | MMTQ | ≤ 0.2
88 | HVHT | ≤ 0.2
89 | QCVR | 0.48
90 | YRMT | ≤ 0.2
91 | WTNC | ≤ 0.2
92 | VPIR | ≤ 0.2
93 | NMNG | ≤ 0.2
94 | SEMG | ≤ 0.2
95 | RAQK | ≤ 0.2
96 | REGK | ≤ 0.2
97 | MDCT | ≤ 0.2
98 | PRIA | ≤ 0.2
